According to the supplement of paper PMC8047034:
Where a name gives a salt, the structure may show the parent alone. The list shows a part of the results. Repeats are few or missing, and single values can be far off.

What follows are compounds tested on OVCAR4 (assay: log2 surviving fraction (library drug vs vehicle, or drug + carboplatin vs carboplatin alone; relative to plate median); ovarian cancer lines: OVCAR4 is platinum-sensitive and Ov4Carbo platinum-resistant; higher = more cell survival). Details: library drug concentration 10 µM; 7 days; carboplatin co-treatment 0 µM.

Row | SMILES | log2 surviving fraction
1 | C=C[C@]1(C)C[C@@H](OC(=O)CSC(C)(C)CNC(=O)[C@H](N)C(C)C)[C@]2(C)[C@H](C)CC[C@]3(CCC(=O)[C@H]32)[C@@H](C)[C@@H]1O [Valnemulin HCl] | -1.63
2 | O=C(c1ccccc1)c1ccc2n1CCC2C(=O)O (stereo not given) [Ketorolac (Toradol)] | 1.63
3 | CC(C)(C)c1nc(-c2cccc(NS(=O)(=O)c3c(F)cccc3F)c2F)c(-c2ccnc(N)n2)s1 | -1.62
4 | CN1CCN2c3ccccc3Cc3ccccc3C2C1 (stereo not given) [Mianserin hydrochloride] | 1.3
5 | CC(C(=O)O)c1ccc2c(c1)CC(=O)c1ccccc1S2 (stereo not given) [Zaltoprofen] | 1.1
6 | Nc1ccn([C@H]2CC[C@@H](CO)O2)c(=O)n1 [Zalcitabine] | 0.122
7 | CC[C@@H](C(N)=O)N1CCCC1=O [Levetiracetam] | 1.14
8 | Cc1cn([C@H]2C=C[C@@H](CO)O2)c(=O)[nH]c1=O [Stavudine] | 0.78
9 | CNC[C@H](O)c1ccc(O)c(O)c1 [Epinephrine bitartrate (Adrenalinium)] | -1.01
10 | CCN(CC)CCNC(C(=O)OCCC(C)C)c1ccccc1 (stereo not given) [Camylofin Chlorhydrate] | -0.327
11 | CN1C(CCl)Nc2cc(Cl)c(S(N)(=O)=O)cc2S1(=O)=O (stereo not given) [Methyclothiazide] | 0.00591
12 | CN1C[C@@H]2C[C@H]1CN2c1cc2c(cc1F)c(=O)c(C(=O)O)cn2C1CC1 [Danofloxacin Mesylate] | 0.788
13 | CCCCC(CC)CNC(=N)NC(=N)NCCCCCCNC(=N)NC(=N)NCC(CC)CCCC (stereo not given) [Alexidine HCl] | -9.23
14 | CO[C@H]1/C=C/O[C@@]2(C)Oc3c(C)c(O)c4c(O)c(c(/C=N/N5CCN(C)CC5)c(O)c4c3C2=O)NC(=O)/C(C)=C\C=C\[C@H](C)[C@H](O)[C@@H](C)[C@@H](O)[C@@H](C)[C@H](OC(C)=O)[C@@H]1C [Rifampin (Rifadin, Rimactane)] | -0.0665
15 | CC[C@H]1CN2CCc3cc(OC)c(OC)cc3[C@@H]2C[C@@H]1C[C@H]1NCCc2cc(OC)c(OC)cc21 [Emetine] | -8.7
16 | COC(=O)CCc1ccc(OCC(O)CNC(C)C)cc1 (stereo not given) [Esmolol HCl] | -0.137
17 | O=C(Nc1ccccc1)c1ccccc1O [Salicylanilide] | 0.228
18 | CC(C)OC(=O)OCOP(=O)(CO[C@H](C)Cn1cnc2c(N)ncnc21)OCOC(=O)OC(C)C [Tenofovir Disoproxil Fumarate] | -0.566
19 | CN(C)C(=O)Oc1ccc[n+](C)c1 [Pyridostigmine Bromide (Mestinon)] | 1.1
20 | N=C(N)NS(=O)(=O)c1ccc(N)cc1 [Sulfaguanidine] | -0.422

Row | SMILES | log2 surviving fraction
21 | Cc1cc(N)c2ccccc2[n+]1CCCCCCCCCC[n+]1c(C)cc(N)c2ccccc21 [Dequalinium chloride] | -6.89
22 | c1ccc2c(c1)sc1ccccc12 [Dibenzothiophene] | 0.152
23 | CC1(C)O[C@@H]2C[C@H]3[C@@H]4CCC5=CC(=O)C=C[C@]5(C)[C@@]4(F)[C@@H](O)C[C@]3(C)[C@]2(C(=O)CO)O1 [Triamcinolone Acetonide] | 0.00804
24 | CCOC(=O)C1=C[C@@H](OC(CC)CC)[C@H](NC(C)=O)[C@@H](N)C1 [Oseltamivir phosphate (Tamiflu)] | 0.0102
25 | CC(C)NCC(O)COc1cccc2[nH]ccc12 (stereo not given) [Pindolol] | 0.0173
26 | CCOC(=O)c1c(CSc2ccccc2)n(C)c2cc(Br)c(O)c(CN(C)C)c12 [Arbidol HCl] | -0.303
27 | CC1COc2c(N3CCN(C)CC3)c(F)cc3c(=O)c(C(=O)O)cn1c23 (stereo not given) [Ofloxacin (Floxin)] | 0.715
28 | COc1cc(OC)c(C(=O)CCCN2CCCC2)c(OC)c1 [Buflomedil HCl] | -0.216
29 | CC[N+]1(C)CCCC(OC(=O)C(O)(c2ccccc2)c2ccccc2)C1 (stereo not given) [Pipenzolate Bromide] | 0.257
30 | CC[C@@H]1C(=O)OC[C@@H]1Cc1cncn1C [Pilocarpine HCl] | 1.1
31 | CCC(C)(C)C(=O)O[C@H]1C[C@@H](C)C=C2C=C[C@H](C)[C@H](CC[C@@H]3C[C@@H](O)CC(=O)O3)[C@H]21 [Simvastatin (Zocor)] | -4.93
32 | C[C@@H](O[C@H]1OCCN(Cc2nn(P(=O)(O)O)c(=O)[nH]2)[C@H]1c1ccc(F)cc1)c1cc(C(F)(F)F)cc(C(F)(F)F)c1 [Fosaprepitant dimeglumine] | -1.38
33 | CCCCCN(C)CCC(O)(P(=O)(O)O)P(=O)(O)O [Ibandronate sodium] | -4.78
34 | CCOC(=O)[C@H](CCc1ccccc1)N[C@@H](C)C(=O)N1Cc2ccccc2C[C@H]1C(=O)O [Quinapril HCl (Accupril)] | 0.662
35 | O=C1NCC2(CCN(CCc3ccccc3)CC2)O1 [Fenspiride HCl] | 0.33
36 | CN[C@@H]1[C@H](O)[C@H](NC)[C@H]2O[C@@]3(O)C(=O)C[C@@H](C)O[C@H]3O[C@@H]2[C@H]1O [Spectinomycin  hydrochloride] | 0.424
37 | CN(C)[C@@H](CCOc1cccc2ccccc12)c1ccccc1 [Dapoxetine hydrochloride (Priligy)] | -0.742
38 | CN(C)C(=O)Oc1cccc([N+](C)(C)C)c1 [Neostigmine bromide (Prostigmin)] | 0.0734
39 | C[C@]12CC[C@@H]3c4ccc(O)cc4CC[C@H]3[C@@H]1CCC2=O [Estrone] | -0.629
40 | C=C(c1ccc(C(=O)O)cc1)c1cc2c(cc1C)C(C)(C)CCC2(C)C [Bexarotene] | -0.741
